Results: PubChem BioAssay AID1347120 (National Center for Advancing Translational Sciences (NCATS), 2019)
Screen size: about 390,000 compounds; about 930 (0.24%) were called active. The shares of active, inactive and inconclusive entries below differ from those in the screen. Calls come from the whole dose curve; as a rule, active = well fitted activation curve with a large enough effect; inconclusive = small, poorly fitted or top-dose-only effect; inactive = no such curve, though single readings can be large or run the other way. A potency beside an inconclusive call is a rough fit, not a confirmed value.

Test: qHTS for Suppressors of FUS Proteinopathy: Primary screen using FUS-linked yeast assay; note: nearly all actives have a fitted effect of over 55% in size
Settings: S. cerevisiae FUS-expressing, OD600, 24 h; Potency: growth rescue; series mostly up to 76.6 µM
In short: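 Cultures pregrown in 2.5% raffinose medium are shifted to minimal medium containing 2% galactose to express toxic FUS. Compounds are tested at several concentrations. After 24hr at 30C, growth is quantified at 600 nm absorbance.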
Potency is the fitted concentration of half-maximal effect; tags give direction and shape of the fitted curve.

SMILES	Potency
COC(=O)c1c(C#N)c(N)nc2c1CCCC2	inactive
CC(C)(C)c1ccc(C(=O)N2[C@H](COCc3ccccc3)C=CS2(=O)=O)cc1	inconclusive: 10 µM [activator, partial curve]
CCN(CC)S(=O)(=O)c1ccc(NC(=O)COC(=O)c2cc(S(=O)(=O)Nc3ccc(OC)cc3)ccc2O)cc1	inconclusive: 14.1 µM [activator, partial curve, poor fit]
COc1ccccc1NC(=O)C1=C(C)NC(SCC(=O)Nc2ccc(C(=O)O)cc2)=C(C#N)C1c1cccs1 (stereo unspecified)	inconclusive: 39.8 µM [activator, partial curve, poor fit]
COc1ccc(NC(=O)C(c2ccccc2)N(C)C(=O)/C=C\c2ccc3c(c2)OCO3)cc1 (stereo unspecified)	inconclusive: 28.2 µM [activator, single point]
NC(=O)[C@H](Cc1cc2ccccc2s1)NC(=O)[C@@H]1CC2(CC(c3cccc(NC(=O)[C@@H]4CCC(=O)N4)c3)=NO2)CN1C(=O)/C=C/c1c(F)cccc1Cl (stereo partly specified)	inconclusive: 14.1 µM [activator, partial curve]
O=C(O)Cc1sc(Nc2cccc3ccccc23)nc1-c1ccc(Cl)cc1	inactive
CCCCOCCCNC(=O)C[C@H]1C[C@@]2(C(=O)OC)C(=C[C@H](C(C)C)O[C@@H]2C2CC2)N(Cc2cccc3ccccc23)C1=O	inconclusive: 14.1 µM [activator, partial curve, poor fit]
C[C@@H](c1ccccc1)N1C[C@H](COCc2ccccc2)Oc2cc(N3CC[C@@H](O)C3)ccc2S1(=O)=O	inconclusive: 50.1 µM [activator, single point]
O=C1NC(c2ccccc2)=C(c2nc3ccccc3s2)C(c2ccccc2)N1 (stereo unspecified)	inconclusive: 20 µM [activator, partial curve, poor fit]
CC(=O)c1cccc(NS(=O)(=O)c2ccc3[nH]c4c(c3c2)CCCCC4)c1	inconclusive: 28.2 µM [activator, single point]
Cc1nn(Cc2c(Cl)cccc2Cl)c(C)c1NC(=O)/C=C/c1cnn(C)c1C	inconclusive: 20 µM [activator, partial curve, poor fit]
NC(=S)NNc1ccnc2cc(Cl)ccc12	inactive
O=C(C[C@H]1C(=O)N(Cc2ccccc2)C[C@@H]1Cc1ccccc1)Nc1ccccc1	inconclusive: 25.1 µM [activator, single point]
Cc1sc2ncnc(N3CCC(C(=O)NNC(=O)COc4ccccc4Cl)CC3)c2c1C	inconclusive: 39.8 µM [activator, single point]
COc1ccc(OC)c(CNC(=O)c2cc3c(Cl)nc4ccccc4c3s2)c1	inconclusive: 31.6 µM [activator, single point]
COc1ccccc1CC(=O)Nc1ccc2nc(Nc3cccc(C(F)(F)F)c3)cc(C)c2c1	inconclusive: 10 µM [activator, partial curve, poor fit]
CC(C)CCOP(=O)(c1ccc(N(C)C)cc1)C(O)c1ccc(Cl)cc1Cl (stereo unspecified)	inconclusive: 25.1 µM [activator, single point]
O=C(NCc1cccc(C(F)(F)F)c1)O[C@H]1CC[C@@]23CCCN2C(=O)CCC[C@H]3C1	inactive
O=C(Nc1nc2ccc(F)cc2s1)C1CC(=O)N(c2ccc3c(c2)OCCO3)C1 (stereo unspecified)	inconclusive: 50.1 µM [activator, single point]
O=C(c1ccc(CS(=O)(=O)c2ccc(Br)cc2)o1)N1CCN(c2ccc(F)cc2)CC1	inactive

SMILES	Potency
CN(C(=O)COC(=O)c1ccc(-c2ccc(O)cc2)cc1)C1CCS(=O)(=O)C1 (stereo unspecified)	inactive
COC(=O)c1scc(-c2ccc(C)cc2)c1S(=O)(=O)N1CCN(c2ccc(F)cc2)CC1	inactive
CCc1ccc(C2CC3C(CN2S(=O)(=O)c2ccc(C)cc2)[C@@H](O)C[C@@H](c2ccc(CC)cc2)N3S(=O)(=O)c2ccc(C)cc2)cc1 (stereo partly specified)	inconclusive: 14.1 µM [activator, partial curve]
COc1ccc(NC(=O)Nc2ccc3c(c2)C(=O)N([C@H](C)CO)C[C@H](C)[C@@H](CN(C)C(=O)Nc2ccccc2)O3)cc1	inconclusive: 20 µM [activator, single point]
CCOc1ccc(C2NC(=O)c3n[nH]c(C)c32)cc1 (stereo unspecified)	inactive
CCOC(=O)[C@]12CCCC=C1N(Cc1ccco1)C(=O)[C@H](CC(=O)NCc1ccc(OC)c(OC)c1)C2	inactive
COc1cccc(-c2cc3nc4c(c(N5CCC6(CC5)OCCO6)n3n2)CCCC4)c1	inconclusive: 50.1 µM [activator, single point]
O=C(NCc1ccco1)c1ccc2c(c1)N(Cc1ccccc1)C(=O)c1ccccc1S2	active: 31.6 µM
O=S1(=O)CCO[C@H]2Cc3ccccc3[C@H]2N1Cc1cccc(C(F)(F)F)c1	inconclusive: 22.4 µM [activator, single point]
COC(=O)c1ccccc1NC(=O)c1cccc(NC(=O)c2ccc(Br)o2)c1C	inconclusive: 44.7 µM [activator, single point]
Oc1ccc(C[C@H]2CN([C@@H](Cc3ccccc3)CN3CCCC3CN3C(=S)NC[C@@H]3Cc3ccccc3)C(=S)N2CC2CCCCC2)cc1 (stereo partly specified)	inconclusive: 50.1 µM [activator, single point]
COc1ccc(Cn2ccc3nc(C)c(C(=O)Nc4cc(OC)c(OC)c(OC)c4)cc3c2=O)cc1	inactive
CC(C(=O)Nc1ccc(F)c(F)c1)N1CCN(C)CC1 (stereo unspecified)	inactive
CCCCC(=O)N1CCc2cc(OC)c(OC)cc2C1COc1ccc(C(=O)OCC)cc1 (stereo unspecified)	inconclusive: 31.6 µM [activator, single point]
Cc1ccc(C(=O)CSC2=C(C#N)C(c3ccco3)CC(=O)N2)c(C)c1 (stereo unspecified)	inconclusive: 28.2 µM [activator, partial curve, poor fit]
CCOc1c(OC(C)=O)ccc(/C=C/c2ccc3cccc(OC)c3n2)c1[N+](=O)[O-]	inconclusive: 39.8 µM [activator, partial curve]
N#Cc1cc2c(nc1SCC(=O)O)CCCC2	inactive
O=C(c1ccc(F)cc1Cl)N1CCCC(c2nc(-c3cccs3)no2)C1 (stereo unspecified)	inactive
C=CCn1c(SCC(=O)c2cc(C)n(C(C)COC)c2C)nc2sc(C)c(C)c2c1=O (stereo unspecified)	inconclusive: 31.6 µM [activator, partial curve, poor fit]
COc1ccc(OCc2nn3c(-c4ccco4)nnc3s2)cc1	inconclusive: 14.1 µM [activator, partial curve, poor fit]
CCOC(=O)CCSc1nc(N2CCOCC2)c2c(c1C#N)CC(C)(C)OC2	inactive

SMILES	Potency
COc1cccc(CN2C(=O)C3(SCC(=O)N3c3ccc(C)c(Cl)c3)c3ccccc32)c1 (stereo unspecified)	inconclusive: 11.2 µM [activator, partial curve, poor fit]
CC(C)(C)c1cc(NC(=O)CSc2nnc(NCc3ccccc3)s2)n(-c2ccccc2)n1	inconclusive: 35.5 µM [activator, single point]
O=S(=O)(NCC(c1cccs1)S(=O)(=O)c1ccccc1)c1ccccc1 (stereo unspecified)	inactive
Nc1nnc(-c2cccc(Cl)c2Cl)c(N)n1	inactive
CCOC(=O)N1CCc2c(sc(NCc3ccc(N(CC)CC)cc3)c2C(=O)Nc2cc(OC)ccc2OC)C1	inconclusive: 14.1 µM [activator, partial curve, poor fit]
CCOc1ccccc1NC(=O)c1c2c(nc3ccccc13)C(=O)N(C1CCCCC1)C2	inconclusive: 20 µM [activator, single point]
CC1(C)CC(=O)C2=C(C1)N(c1ccc(F)cc1)C(N)=C(C#N)C2c1cccs1 (stereo unspecified)	inconclusive: 50.1 µM [activator, single point]
COc1ccc(S(=O)(=O)N(C)C[C@H]2OCCCC[C@H](C)Oc3ccc(NC(=O)Nc4ccc(F)cc4)cc3C(=O)N([C@H](C)CO)C[C@H]2C)cc1	inconclusive: 17.8 µM [activator, single point]
CN1C(=O)Cc2cc(S(=O)(=O)NCc3ccccc3Cl)ccc21	inconclusive: 50.1 µM [activator, single point]
CCc1nc2ccc(C(=O)Nc3cc(-c4ccccc4)ccc3OC)cn2c1N(C)Cc1ccc(Cl)cc1	inconclusive: 28.2 µM [activator, single point]
COC(=O)c1cc(-c2c(C)oc3cc(O)ccc3c2=O)c(C)o1	inactive
CCc1cccc(NC(=O)C2CCCN2S(=O)(=O)c2ccc3nc(-c4ccccc4)[nH]c3c2)c1 (stereo unspecified)	inactive
Cc1nc2ccc(NS(=O)(=O)c3c(F)cc(F)cc3Br)cc2s1	inactive
COc1ccc(OC)c([C@@H]2Nc3ccc(C(=O)O)cc3[C@@H]3C=CC[C@@H]32)c1	inconclusive: 35.5 µM [activator, single point]
CCOc1cc(CNc2ccc(N3CCOCC3)cc2)cc(Br)c1OCC	inconclusive: 6.31 µM [activator, partial curve, poor fit]
O=C(Cn1c(-c2cncs2)nc2ccccc21)NCc1cccs1	inactive
CCc1ccc(CNC(=O)c2ccc(NC(=O)C3=CSCCO3)cc2)cc1	inconclusive: 11.2 µM [activator, partial curve, poor fit]
CCc1ccc(-c2nnn(Cc3nc4ccccc4s3)n2)cc1	inconclusive: 31.6 µM [activator, single point]
COc1ccc(OC)c(C(=O)c2ccc([N+](=O)[O-])cc2)c1	inactive
